Data on 27 compounds can be found in the supplement of paper PMC8512760.

SMILES strings stand for the structures. This is one part of the list. Most values come without repeats; read them as rough.

Among the test systems are HCC-1143; HCC-1187; MDA-468; SUM-149.
Holding throughout (test): cell viability relative to vehicle (% of vehicle); basal-like triple-negative breast cancer lines; higher = less cytotoxic
Holding throughout (details): 10 µM; 72 h
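Also: stably firefly luciferase-GFP labeled cells in 96-well plates, viability read as luciferase photon flux after d-luciferin addition, treated wells normalized to vehicle wells, single-dose high-throughput screen.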

In the case of `CN(C)C1C(=O)C(C(N)=O)=C(O)C2(O)C(=O)C3=C(O)c4c(O)cccc4C(C)(O)C3C(O)C12.O.O` (configuration not stated) [Oxytetracycline Dihydrate], the cell viability was found to be 74.8 with HCC-1143, 78 in the assay with HCC-1187, 93.3 with MDA-468 and 107 in the assay with SUM-149.
For `CCC1(C)CC(=O)NC(=O)C1` [Bemegride], the cell viability in the assay on HCC-1143 amounted to 102; in the assay with HCC-1187 it was 92.2; in the assay with MDA-468 it was 98.7; in the assay with SUM-149, 106.
For `CCN(C)C(=O)Oc1cccc(C(C)N(C)C)c1.O=C(O)C(O)C(O)C(=O)O` (configuration not stated) [Rivastigmine Tartrate], in that order: 79.7, 103, 122 and 105.
For `O=C1CCC2(O)C3Cc4ccc(O)c5c4C2(CCN3CC2CC2)C1O5` (configuration not stated) [Naltrexone], in that order: 94.6, 81.6, 86.8 and 126.
In the same order, the values of `O=c1[nH]c2ccccc2n1CCCN1CCC(n2c(=O)[nH]c3cc(Cl)ccc32)CC1` [Domperidone] are 109, 147, 155 and 167.
Consider `CC(=O)O[C@@]12CO[C@@H]1C[C@@H](O)[C@@]1(C)C(=O)[C@@H](O)C3=C(C)[C@@H](O)C[C@@](O)([C@@H](OC(=O)c4ccccc4)[C@H]21)C3(C)C` [10-DAB (10-Deacetylbaccatin)], for which the cell viability in the assay with HCC-1143 was 61.1; in the assay with HCC-1187, 16; in the assay with MDA-468, 61.4; in the assay with SUM-149 it was 87.9.
For `CC(O)(CS(=O)(=O)c1ccc(F)cc1)C(=O)Nc1ccc(C#N)c(C(F)(F)F)c1` (configuration not stated) [Bicalutamide], in that order: 78.4, 116, 90.5 and 94.2.
In the same order, the values of `Cl.O=C1CCC2(O)C3Cc4ccc(O)c5c4C2(CCN3CC2CC2)C1O5` (configuration not stated) [Naltrexone HCl] are 83.8, 88.5, 97.3 and 134.
In the same order, the values of `CCC1(c2ccc(N)cc2)CCC(=O)NC1=O` (configuration not stated) [Aminoglutethimide] are 78.4, 92.9, 104 and 98.5.
For `CC(=Cc1csc(C)n1)C1CC2OC2(C)CCCC(C)C(O)C(C)C(=O)C(C)(C)C(O)CC(=O)O1` (configuration not stated) [Epothilone B (EPO906, Patupilone)], the cell viability in the assay with HCC-1143 is 96.6; with HCC-1187, 33.9; with MDA-468 it was 87.1.
`CCC[C@H](C)[C@@]1(CC)C(=O)N=C([O-])NC1=O.[Na+]` [Pentobarbital sodium salt]: the cell viability with HCC-1143 was determined as 65.2; in the assay with HCC-1187, 71.1; in the assay on MDA-468 it was 98.8; in the assay on SUM-149 it was 97.5.
For `Cc1cccc(C(C)c2cnc[nH]2)c1C.Cl` (configuration not stated) [Medetomidine HCl], in that order: 84.8, 103, 102 and 96.9.
In the same order, the values of `Cc1cccc(C)c1NC1=NCCCS1.Cl` [Xylazine HCl] are 113, 121, 127 and 118.
Regarding `CN(C)C1C(=O)C(C(N)=O)=C(O)C2(O)C(=O)C3=C(O)c4c(O)cccc4C(C)(O)C3C(O)C12` (configuration not stated) [Oxytetracycline (Terramycin)], the cell viability in the assay on HCC-1143 came out at 85.4; in the assay with HCC-1187, 75.1; in the assay with MDA-468 it was 85.1; with SUM-149, 111.
Regarding `CN(C)C(=O)Oc1ccc[n+](C)c1.[Br-]` [Pyridostigmine Bromide], the cell viability with HCC-1143 turned out to be 78.3; in the assay with HCC-1187, 84.9; in the assay with MDA-468, 91.9; with SUM-149, 101.
In the same order, the values of `Cl.NCC1(CC(=O)O)CCCCC1` [Gabapentin HCl] are 65.4, 92.1, 88 and 85.7.
In the same order, the values of `N#Cc1ccccc1-c1cc(-c2ccccn2)cn(-c2ccccc2)c1=O` [Perampanel] are 91.9, 91.8, 89.7 and 126.
As to `CC(C)CC(CN)CC(=O)O` (configuration not stated) [Pregabalin], the cell viability with HCC-1143 is 85; in the assay with HCC-1187, 99.1; in the assay with MDA-468, 82.2; in the assay on SUM-149, 117.
In the same order, the values of `COc1cc2c(c(OC)c1OC)-c1ccc(OC)c(=O)cc1C(NC(C)=O)CC2` (configuration not stated) [Colchicine] are 58.8, 42.9, 64 and 112.
In the same order, the values of `CCC(COC(=O)c1cc(OC)c(OC)c(OC)c1)(c1ccccc1)N(C)C` (configuration not stated) [Trimebutine] are 83.4, 90.7, 95.2 and 102.
In the same order, the values of `Oc1cc(Cl)ccc1Oc1ccc(Cl)cc1Cl` [Triclosan] are 78.1, 82.8, 111 and 94.1.
For the compound `CNC1CC(N)C(O)C(OC2OC(CO)C(O)C3OC4(OC(C(N)CO)C(O)C(O)C4O)OC23)C1O` (configuration not stated) [Hygromycin B], the cell viability with HCC-1143 is 60.4; in the assay with HCC-1187, 95.9; in the assay with MDA-468, 88.6; with SUM-149 it was 152.
For `NC(Cc1ccc(N(CCCl)CCCl)cc1)C(=O)O` (configuration not stated) [Melphalan], in that order: 80.8, 91, 93.3 and 107.
In the same order, the values of `CC(NC(C)(C)C)C(=O)c1cccc(Cl)c1.Cl` (configuration not stated) [Bupropion hydrochloride] are 69.5, 90.9, 114 and 95.2.
For `CCCCCCCCCCCCCCCC[n+]1ccccc1.[Cl-]` [Cetylpyridinium Chloride], in that order: 16.8, 21.6, 27.1 and 19.9.
In the case of `CNCC(=O)c1ccc(O)c(O)c1.Cl` [Adrenalone HCl], the cell viability was 100 in the assay on HCC-1143, 112 in the assay on HCC-1187, 166 in the assay with MDA-468 and 99.7 with SUM-149.
For `Cc1cc(C(C#N)c2ccc(Cl)cc2)c(Cl)cc1NC(=O)c1cc(I)cc(I)c1O` (configuration not stated) [Closantel], in that order: 66.3, 91.8, 89 and 98.
